Values marked as one replicate rest on one cluster of the flow cell; about a third of the high ones do not repeat.
These sequences were tested on ATP (assay: switch fluorescence ratio, 500 uM ATP over buffer (Cy3 cluster intensity, sum of 5 cycles each) (fold (ratio)); higher = stronger signal-on switching upon ATP binding; sequences stand for … in TCGTCGGCAGCGTCAGATGTGTATAAGAGACAGTTTTTTTTTTTTTTTTTTTTTTTTT…TC). Conditions: aptamer strand: ATP DNA aptamer (quencher-CACCTGGGGGAGTATTGCGGAGGAAGG + anchor), 100 nM annealed; ATP concentration: 500 uM; one replicate.
In short: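 Five buffer/ATP imaging cycles were run on Cy3-labelled switching-strand clusters on a modified Illumina MiSeq flow-cell, with NaOH stripping and re-annealing between cycles. In each cycle, clusters annealed to 100 nM quencher-labelled ATP aptamer were imaged in selection buffer, then after 15 min with 500 uM ATP at 22 °C. Per cluster, the fluorescence ratio is summed target-cycle over summed buffer-cycle Cy3 intensity, averaged per switch-domain sequence. Only clusters within 100-1000 RFU were kept.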
Sequence AACGACGTGT has a switch fluorescence ratio of 1.02.
In the case of AACGAGTCTC, the switch fluorescence ratio is reported as 1.02.
Sequence AACGATTGCC has a switch fluorescence ratio of 1.03.
For AACGCAAATA, the switch fluorescence ratio was 2.78.
AACGCCGATT gave a switch fluorescence ratio of 0.968.
Work on AACGCGATAT yielded a switch fluorescence ratio of 6.96.
AACGCGGATG was tested, and the switch fluorescence ratio was 1.
Sequence AACGCTGGGC has a switch fluorescence ratio of 1.02.
Sequence AACGCTTAAC has a switch fluorescence ratio of 1.84.
In the case of AACGCTTAG, the switch fluorescence ratio is reported as 1.02.
In the case of AACGCTTTTT, the switch fluorescence ratio is reported as 0.984.
AACGGAAGCT was tested, and the switch fluorescence ratio was 1.06.
With AACGGAAGGA the switch fluorescence ratio was 1.03.
Work on AACGGACACG yielded a switch fluorescence ratio of 1.04.
For AACGGAGAAG, the switch fluorescence ratio was 1.
AACGGAGCCA gave a switch fluorescence ratio of 1.25.
Work on AACGGAGGGT yielded a switch fluorescence ratio of 0.974.
AACGGGCCT showed a switch fluorescence ratio of 0.988.
AACGGTCGT was tested, and the switch fluorescence ratio was 0.985.
For AACGTCAAA, the switch fluorescence ratio was 1.07.
Work on AACGTCTCAG yielded a switch fluorescence ratio of 1.
For AACGTCTGTC, the switch fluorescence ratio was 1.03.
AACGTCTTAC was tested, and the switch fluorescence ratio was 1.18.
Sequence AACGTCTTGT has a switch fluorescence ratio of 0.986.
Work on AACGTGAACC yielded a switch fluorescence ratio of 1.18.
With AACGTGTAT the switch fluorescence ratio was 0.981.
AACGTGTCAT showed a switch fluorescence ratio of 1.03.
AACGTGTCGG was tested, and the switch fluorescence ratio was 0.964.
AACGTGTGAA showed a switch fluorescence ratio of 0.973.
Sequence AACTAAAAAT has a switch fluorescence ratio of 0.954.
With AACTAAATTT the switch fluorescence ratio was 1.02.
With AACTACGCCA the switch fluorescence ratio was 1.78.
In the case of AACTACGGGG, the switch fluorescence ratio is reported as 1.01.
AACTAGCCTT showed a switch fluorescence ratio of 1.02.
AACTAGGGAT was tested, and the switch fluorescence ratio was 0.978.
AACTAGGGTA showed a switch fluorescence ratio of 0.983.
AACTCAAAAT gave a switch fluorescence ratio of 1.03.
In the case of AACTCAAGGT, the switch fluorescence ratio is reported as 1.04.
AACTCACGGC showed a switch fluorescence ratio of 1.34.
In the case of AACTCAGGGC, the switch fluorescence ratio is reported as 1.01.
With AACTCCACCT the switch fluorescence ratio was 1.3.
AACTCGATA was tested, and the switch fluorescence ratio was 1.01.
For AACTCGGGGA, the switch fluorescence ratio was 1.42.
AACTCGTCAT showed a switch fluorescence ratio of 0.975.
Work on AACTCTACAA yielded a switch fluorescence ratio of 1.23.
AACTCTATTG gave a switch fluorescence ratio of 0.996.
AACTCTCTCC was tested, and the switch fluorescence ratio was 1.15.
For AACTCTGTA, the switch fluorescence ratio was 0.971.
AACTGAAGGA gave a switch fluorescence ratio of 0.963.
In the case of AACTGGAGTC, the switch fluorescence ratio is reported as 0.991.
With AACTGGCACG the switch fluorescence ratio was 1.04.
For AACTGGTCAA, the switch fluorescence ratio was 1.05.
Sequence AACTGGTCAG has a switch fluorescence ratio of 0.938.
AACTGGTTCA gave a switch fluorescence ratio of 0.975.
Work on AACTGGTTGT yielded a switch fluorescence ratio of 1.06.
AACTTAACAT was tested, and the switch fluorescence ratio was 1.07.
In the case of AACTTACGTA, the switch fluorescence ratio is reported as 1.36.
AACTTTATG showed a switch fluorescence ratio of 0.986.
In the case of AACTTTGTCT, the switch fluorescence ratio is reported as 0.997.
In the case of AAGAAAGAGT, the switch fluorescence ratio is reported as 1.01.
AAGAACACCG showed a switch fluorescence ratio of 1.04.
For AAGAACCAAC, the switch fluorescence ratio was 1.17.
With AAGAACCGGA the switch fluorescence ratio was 1.44.
Work on AAGAACGCGT yielded a switch fluorescence ratio of 1.21.
For AAGAACTCTC, the switch fluorescence ratio was 1.03.
AAGAACTTCT gave a switch fluorescence ratio of 1.01.
In the case of AAGAAGAATA, the switch fluorescence ratio is reported as 1.
AAGAAGACAT was tested, and the switch fluorescence ratio was 0.988.
Work on AAGAAGGTTA yielded a switch fluorescence ratio of 1.01.
For AAGAATGATA, the switch fluorescence ratio was 0.98.
With AAGAATGCG the switch fluorescence ratio was 1.02.
AAGAATTGC gave a switch fluorescence ratio of 0.999.
In the case of AAGAATTGTT, the switch fluorescence ratio is reported as 0.956.
AAGACAGTCT gave a switch fluorescence ratio of 0.996.
For AAGACATATT, the switch fluorescence ratio was 0.989.
Work on AAGACCCAAC yielded a switch fluorescence ratio of 1.04.
Work on AAGACCCAGT yielded a switch fluorescence ratio of 0.97.
Sequence AAGAGAAAGG has a switch fluorescence ratio of 0.966.
Sequence AAGAGACCCT has a switch fluorescence ratio of 0.989.
AAGAGACCTG gave a switch fluorescence ratio of 1.03.
AAGAGAGAAG was tested, and the switch fluorescence ratio was 0.969.
AAGAGAGGTA gave a switch fluorescence ratio of 0.945.
For AAGAGATTTC, the switch fluorescence ratio was 1.03.
Work on AAGAGCAGGT yielded a switch fluorescence ratio of 1.03.
For AAGAGCGACA, the switch fluorescence ratio was 0.981.
AAGAGGTCGC gave a switch fluorescence ratio of 1.01.
AAGAGTGAAG showed a switch fluorescence ratio of 0.98.
With AAGAGTGGGT the switch fluorescence ratio was 0.985.
Sequence AAGATACATG has a switch fluorescence ratio of 1.03.
AAGATACCAC was tested, and the switch fluorescence ratio was 1.16.
Sequence AAGATAGTTA has a switch fluorescence ratio of 0.953.
AAGATCGGGA gave a switch fluorescence ratio of 1.01.
For AAGATCTGAT, the switch fluorescence ratio was 1.02.
For AAGATCTTTT, the switch fluorescence ratio was 1.
In the case of AAGATGGACT, the switch fluorescence ratio is reported as 1.03.
Sequence AAGATGTGCG has a switch fluorescence ratio of 1.02.
AAGATTAATG was tested, and the switch fluorescence ratio was 0.983.
AAGATTCATA was tested, and the switch fluorescence ratio was 0.947.
Sequence AAGATTGGA has a switch fluorescence ratio of 0.977.
AAGCAAGTAG gave a switch fluorescence ratio of 1.18.
For AAGCACAGTT, the switch fluorescence ratio was 1.16.
With AAGCACTGAG the switch fluorescence ratio was 1.25.
Work on AAGCAGTATA yielded a switch fluorescence ratio of 1.
For AAGCATA, the switch fluorescence ratio was 1.93.
With AAGCATCAGA the switch fluorescence ratio was 0.98.
In the case of AAGCATCCGC, the switch fluorescence ratio is reported as 1.07.
With AAGCCAAAAA the switch fluorescence ratio was 1.02.
Work on AAGCCAGTAA yielded a switch fluorescence ratio of 0.997.
With AAGCCCGGTT the switch fluorescence ratio was 1.04.
AAGCCCTTAA gave a switch fluorescence ratio of 1.
For AAGCCGAGGT, the switch fluorescence ratio was 1.01.
Work on AAGCCGCCCG yielded a switch fluorescence ratio of 1.06.
With AAGCCGGTGA the switch fluorescence ratio was 1.24.
With AAGCCTGATC the switch fluorescence ratio was 1.29.
Sequence AAGCCTGGGA has a switch fluorescence ratio of 1.17.
With AAGCGTGCCA the switch fluorescence ratio was 1.03.
With AAGCGTGGAC the switch fluorescence ratio was 0.998.
Sequence AAGCGTTTGT has a switch fluorescence ratio of 0.976.
In the case of AAGCTCGTG, the switch fluorescence ratio is reported as 0.985.
AAGCTGAAAT was tested, and the switch fluorescence ratio was 1.3.
Work on AAGCTGGACA yielded a switch fluorescence ratio of 0.962.
With AAGCTTCCGT the switch fluorescence ratio was 1.02.
Work on AAGCTTCGCT yielded a switch fluorescence ratio of 1.01.
In the case of AAGCTTCTTT, the switch fluorescence ratio is reported as 1.08.
AAGCTTTTAC gave a switch fluorescence ratio of 2.27.
With AAGGAATCGT the switch fluorescence ratio was 0.973.
AAGGACAATT was tested, and the switch fluorescence ratio was 1.
AAGGACGTGC showed a switch fluorescence ratio of 1.07.
For AAGGAGCTG, the switch fluorescence ratio was 1.09.
AAGGAGTGAA showed a switch fluorescence ratio of 0.962.
For AAGGATAACG, the switch fluorescence ratio was 1.02.
AAGGATCCTC gave a switch fluorescence ratio of 0.992.
AAGGATGCAA gave a switch fluorescence ratio of 1.04.
AAGGCAAAAA was tested, and the switch fluorescence ratio was 1.03.
With AAGGCACCTT the switch fluorescence ratio was 1.08.
Sequence AAGGCAGACG has a switch fluorescence ratio of 0.953.
AAGGCAGGCC gave a switch fluorescence ratio of 1.01.
Sequence AAGGCAGTAA has a switch fluorescence ratio of 1.01.
AAGGCGGACC was tested, and the switch fluorescence ratio was 1.02.
In the case of AAGGCTCCGG, the switch fluorescence ratio is reported as 1.01.
With AAGGCTTCTG the switch fluorescence ratio was 1.04.
With AAGGGACCC the switch fluorescence ratio was 1.
Sequence AAGGGAGTCG has a switch fluorescence ratio of 1.02.
In the case of AAGGGATACT, the switch fluorescence ratio is reported as 1.01.
With AAGGGCAGAC the switch fluorescence ratio was 1.11.
With AAGGGCTAAA the switch fluorescence ratio was 0.953.
For AAGGGGAGCT, the switch fluorescence ratio was 1.03.
AAGGGGGGT gave a switch fluorescence ratio of 0.998.
Sequence AAGGGGTC has a switch fluorescence ratio of 1.05.
For AAGGGTCAAC, the switch fluorescence ratio was 0.989.
In the case of AAGGGTCGTG, the switch fluorescence ratio is reported as 0.999.
With AAGGGTGGAA the switch fluorescence ratio was 1.03.
With AAGGGTGGGC the switch fluorescence ratio was 1.06.
AAGGTAATAT was tested, and the switch fluorescence ratio was 1.
Work on AAGGTATGCG yielded a switch fluorescence ratio of 1.11.
In the case of AAGGTATTGG, the switch fluorescence ratio is reported as 1.04.
With AAGGTCAATC the switch fluorescence ratio was 1.08.
In the case of AAGGTCGGGC, the switch fluorescence ratio is reported as 0.982.
AAGGTCTCTC showed a switch fluorescence ratio of 0.976.
Sequence AAGGTCTGTC has a switch fluorescence ratio of 1.21.
With AAGGTGGGCA the switch fluorescence ratio was 1.01.
Sequence AAGGTGGTC has a switch fluorescence ratio of 1.03.
For AAGGTGGTG, the switch fluorescence ratio was 0.962.
AAGGTTGGAG was tested, and the switch fluorescence ratio was 0.984.
With AAGGTTTATA the switch fluorescence ratio was 1.05.
In the case of AAGGTTTCAC, the switch fluorescence ratio is reported as 0.982.
AAGTAACATA showed a switch fluorescence ratio of 1.05.
AAGTAATGCA was tested, and the switch fluorescence ratio was 1.
With AAGTACAACC the switch fluorescence ratio was 1.25.
In the case of AAGTACGA, the switch fluorescence ratio is reported as 1.23.
Work on AAGTACTTCA yielded a switch fluorescence ratio of 1.22.
For AAGTAGGGTG, the switch fluorescence ratio was 0.94.
AAGTAGTATG showed a switch fluorescence ratio of 0.995.
In the case of AAGTATGAGG, the switch fluorescence ratio is reported as 0.975.
Work on AAGTATTATG yielded a switch fluorescence ratio of 0.995.
For AAGTATTCCT, the switch fluorescence ratio was 1.01.
AAGTCAAAAG was tested, and the switch fluorescence ratio was 0.963.
AAGTCACTCA was tested, and the switch fluorescence ratio was 1.11.
For AAGTCAGTCA, the switch fluorescence ratio was 0.941.
AAGTCGATAC gave a switch fluorescence ratio of 3.17.
Work on AAGTCGGTGA yielded a switch fluorescence ratio of 0.967.
For AAGTCGTCGT, the switch fluorescence ratio was 1.06.
Work on AAGTCGTGAG yielded a switch fluorescence ratio of 1.05.
Work on AAGTCTAATG yielded a switch fluorescence ratio of 0.967.
AAGTCTCTGG showed a switch fluorescence ratio of 1.01.
In the case of AAGTCTGGAG, the switch fluorescence ratio is reported as 0.989.
Sequence AAGTCTGTCG has a switch fluorescence ratio of 0.963.
Work on AAGTCTTTTA yielded a switch fluorescence ratio of 0.952.
In the case of AAGTGAAGCC, the switch fluorescence ratio is reported as 1.02.
AAGTGAGCGG was tested, and the switch fluorescence ratio was 1.
AAGTGAGTGT showed a switch fluorescence ratio of 0.99.
AAGTGCACA showed a switch fluorescence ratio of 1.05.
AAGTGGAGAC was tested, and the switch fluorescence ratio was 0.994.
With AAGTGGCC the switch fluorescence ratio was 0.955.
AAGTGTAGA gave a switch fluorescence ratio of 1.
In the case of AAGTGTGCGT, the switch fluorescence ratio is reported as 0.967.
Sequence AAGTGTGTGC has a switch fluorescence ratio of 0.984.
For AAGTGTTACC, the switch fluorescence ratio was 0.997.
For AAGTGTTG, the switch fluorescence ratio was 0.971.
AAGTTAACTG gave a switch fluorescence ratio of 1.06.
AAGTTATTGC gave a switch fluorescence ratio of 1.07.

— the supplement of paper PMC10126150
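Note: ATP exposure 15 min at 22 °C before imaging.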
